Results from the supplement of paper PMC10369915.
The list shows a part of the results. Rule as the data show it: active = 3.2 or more and inactive = the rest. Most of these values are background signal.

Key:
Assay in all cases: enrichment score (SH2-bound / input frequency) (ratio); bacterial display of known human phosphotyrosine sites (pTyr-Var adds point mutants) read by sequencing; higher = stronger binding; tyrosines were phosphorylated by kinases first
Conditions in all cases: peptide library: pTyr-Var
[1] = target: SHP2 C-SH2 domain E139D
[2] = target: SHP2 C-SH2 domain wild-type
[3] = target: SHP2 N-SH2 domain L43F
[4] = target: SHP2 N-SH2 domain T42A
[5] = target: SHP2 N-SH2 domain T52S
[6] = target: SHP2 N-SH2 domain wild-type

Measured: enrichment score
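Also: displayed peptides selected on beads carrying the immobilized SH2 domain, with library peptides lacking any tyrosine serving as negative controls.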

RIFDFYSARKA [STOX1_Y858_YF]
inactive: [1] 1.2 | [2] 0.68 | [3] 0.947 | [4] 1.01 | [5] 0.986 | [6] 0.873

IEELTYIIKQD [STX5_Y137]
inactive: [1] 0.689 | [2] 0.733 | [3] 0.862 | [4] 0.959 | [5] 0.743 | [6] 1.02

IDGLEYLHSQS [STK11_Y166_G171S]
inactive: [1] 0.831 | [2] 0.738 | [3] 0.938 | [4] 0.555 | [5] 0.617 | [6] 0.882

IDGLEYLHSPG [STK11_Y166_Q170P]
inactive: [1] 0.732 | [2] 0.647 | [3] 0.79 | [4] 0.61 | [5] 0.676 | [6] 0.823

VPDTNYTSDEE [STK33_Y439_A437T]
inactive: [1] 0.495 | [2] 0.497 | [3] 0.415 | [4] 0.471 | [5] 0.571 | [6] 0.725

VGNAAYQAGPL [STK36_Y1181]
inactive: [1] 0.684 | [2] 0.571 | [3] 0.664 | [4] 0.533 | [5] 0.649 | [6] 0.476

RIFDYYSARKT [STOX1_Y858_A863T]
inactive: [1] 0.891 | [2] 0.57 | [3] 0.825 | [4] 0.903 | [5] 0.851 | [6] 0.56

TWSPKYTLRSH [STRN3_Y474_N471S]
inactive: [1] 1.67 | [2] 1.29 | [3] 1.12 | [4] 1.43 | [5] 1.53 | [6] 1.32

IEELTYVIKQD [STX5_Y137_I138V]
inactive: [1] 0.849 | [2] 0.754 | [3] 0.726 | [4] 0.675 | [5] 0.85 | [6] 0.841

VPEANYTSDEE [STK33_Y439_D436E]
inactive: [1] 0.716 | [2] 0.819 | [3] 0.661 | [4] 0.684 | [5] 0.753 | [6] 0.972

STEVIYQPRRK [STK11_Y36]
inactive: [1] 0.2 | [2] 0.246 | [3] 0.232 | [4] 0.23 | [5] 0.151 | [6] 0.353

VGNAAYQAGSL [STK36_Y1181_P1185S]
inactive: [1] 0.992 | [2] 1 | [3] 0.539 | [4] 0.474 | [5] 0.462 | [6] 0.685

LRYEVYGGENE [STOX1_Y610]
inactive: [1] 1.16 | [2] 0.973 | [3] 1.05 | [4] 1.04 | [5] 1.06 | [6] 1.18

TWNPKYTLRSH [STRN3_Y474]
inactive: [1] 1.1 | [2] 0.993 | [3] 0.974 | [4] 0.971 | [5] 0.974 | [6] 0.904

LRFDVYGGENE [STOX1_Y610_E608D_YF]
inactive: [1] 1.2 | [2] 1.13 | [3] 1.17 | [4] 1.17 | [5] 1.15 | [6] 0.932

DKITQYVEEVR [STX2_Y49_K54R]
inactive: [1] 0.972 | [2] 0.908 | [3] 0.99 | [4] 0.646 | [5] 0.855 | [6] 0.854

DKITQYVEEVK [STX2_Y49]
inactive: [1] 0.873 | [2] 0.955 | [3] 0.923 | [4] 0.739 | [5] 0.78 | [6] 0.91

CQAHGYFCQLI [STK11_Y156]
inactive: [1] 2.05 | [2] 2.03 | [3] 2.19 | [4] 1.86 | [5] 2.01 | [6] 1.69

CIILLYIFLKN [STXBP1_Y411_R406C]
inactive: [1] 1.99 | [2] 1.71 | [3] 1.16 | [4] 1.58 | [5] 1.78 | [6] 1.44
